T1: human CD79b (TAHO5) (human, UniProt P40259 29-229)
T1 sequence: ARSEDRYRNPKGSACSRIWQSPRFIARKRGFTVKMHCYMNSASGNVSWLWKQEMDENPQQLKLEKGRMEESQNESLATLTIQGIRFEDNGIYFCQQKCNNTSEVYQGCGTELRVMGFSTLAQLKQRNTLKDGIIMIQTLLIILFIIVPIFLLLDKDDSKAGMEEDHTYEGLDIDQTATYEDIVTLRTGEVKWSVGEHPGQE

B1: anti-human CD79b (SN8)-SMCC-DM1 (antibody)
VH: EVQLQQSGAELMKPGASVKISCKATGYTFSSYWIEWVKQRPGHGLEWIGEILPGGGDTNYNEIFKGKATFTADTSSNTAYMQLSSLTSEDSAVYYCTRRVPVYFDYWGQGTSVTVSS[human IgG1 constant region omitted here]
VL: DIVLTQSPASLAVSLGQRATISCKASQSVDYDGDSFLNWYQQKPGQPPKLFIYAASNLESGIPARFSGSGSGTDFTLNIHPVEEEDAATYYCQQSNEDPLTFGAGTELELKRTVAAPSVFIFPPSDEQLKSGTASVVCLLNNFYPREAKVQWKVDNALQSGNSQESVTEQDSKDSTYSLSSTLTLSKADYEKHKVYACEVTHQGLSSPVTKSFNRGEC
modifications: DM1 linked through SMCC to the epsilon-amino group of lysines; drug to antibody ratio typically 3 to 4
B2: anti-human CD79b (SN8)-MC-MMAF (antibody)
VH: B1 VH
VL: B1 VL
modifications: MMAF linked through the cysteine by the maleimidocaproyl (MC) linker; sites and load not stated

Target: T1, human CD79b (TAHO5)
Experiment: cell-based or functional assay

Binder	IC50 of tumor cell killing (CellTiter-Glo), non-transfected BJAB cells	IC50 of tumor cell killing (CellTiter-Glo), BJAB-cyno CD79b cells
B1	0.4 nM	–
B2	0.2 nM	0.6 nM

Reference: patent publication US20110206658A1 (published 2011)
